{
  "source": "the supplement of paper PMC8728848",
  "binders": {"B1": {"name": "Clone730PsrP (Streptococcus pneumoniae) (protein)", "chain": "MDHHHHHHHHHHASENLYFQGAMVVGSQTAAATEATAKKVEEDRKKPASDYVASVTNVNLQSYAKRRKRSVDSIEQLLASIKNAAVFSGNTIVNGAPAINASLNIAKSETKVYTGEGVDSVYRVPIYYKLKVTNDGSKLTFTYTVTYVNPKTNDLGNISSMRPGYSIYNSGTSTQTMLTLGSDLGKPSGVKNYITDKNGRQVLSYNTSTMTTQGSGYTWGNGAQMNGFFAKKGYGLTSSWTVPITGTDTSFTFTPYAARTDRIGINYFNGGGKVVESSTT"}},
  "assay_in_all_cases": "glycan array binding signal (z-score within array); higher = stronger binding",
  "conditions_in_all_cases": "glycan notation: IUPAC condensed, linker removed",
  "key": {"Gal3S6S(b1-4)GlcNAc": {"target": "Gal3S6S(b1-4)GlcNAc", "procedure,_shortened": "(§1)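 Negative Z-scores can be read as non-binding. The Z-score is calculated within each array and then averaged across arrays of one protein sequence at different concentrations or buffers and across linkers. Arrays, 3228 in all, were curated from the Consortium for Functional Glycomics database and kept only where the protein sequence was available.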"}, "Gal3S6S(b1-4)GlcNAc6S": {"target": "Gal3S6S(b1-4)GlcNAc6S", "procedure,_shortened": "as §1"}, "Gal4S(b1-4)GlcNAc": {"target": "Gal4S(b1-4)GlcNAc", "procedure,_shortened": "as §1"}, "Gal4S6S(b1-4)GlcNAc": {"target": "Gal4S6S(b1-4)GlcNAc", "procedure,_shortened": "as §1"}, "Gal6P(b1-4)GlcNAc": {"target": "Gal6P(b1-4)GlcNAc", "procedure,_shortened": "as §1"}, "Gal6S(b1-3)GlcNAc": {"target": "Gal6S(b1-3)GlcNAc", "procedure,_shortened": "as §1"}, "Gal6S(b1-3)GlcNAc6S": {"target": "Gal6S(b1-3)GlcNAc6S", "procedure,_shortened": "as §1"}, "Gal6S(b1-4)Glc": {"target": "Gal6S(b1-4)Glc", "procedure,_shortened": "as §1"}, "Gal6S(b1-4)Glc6S": {"target": "Gal6S(b1-4)Glc6S", "procedure,_shortened": "as §1"}, "Gal6S(b1-4)GlcNAc": {"target": "Gal6S(b1-4)GlcNAc", "procedure,_shortened": "as §1"}, "Gal6S(b1-4)GlcNAc6S": {"target": "Gal6S(b1-4)GlcNAc6S", "procedure,_shortened": "as §1"}, "GalNAc(a1-3)Gal": {"target": "GalNAc(a1-3)Gal", "procedure,_shortened": "as §1"}, "GalNAc(a1-3)GalNAc": {"target": "GalNAc(a1-3)GalNAc", "procedure,_shortened": "as §1"}, "[1]": {"target": "GalNAc(a1-3)GalNAc(b1-3)Gal(a1-4)Gal(b1-4)Glc", "procedure,_shortened": "as §1"}, "[2]": {"target": "GalNAc(a1-3)GalNAc(b1-3)Gal(a1-4)Gal(b1-4)GlcNAc", "procedure,_shortened": "as §1"}, "GalNAc(b1-3)Gal": {"target": "GalNAc(b1-3)Gal", "procedure,_shortened": "as §1"}, "[3]": {"target": "GalNAc(b1-3)Gal(a1-4)Gal(b1-4)GlcNAc", "procedure,_shortened": "as §1"}, "[4]": {"target": "GalNAc(b1-3)Gal(a1-4)Gal(b1-4)GlcNAc(b1-3)Gal(b1-4)Glc", "procedure,_shortened": "as §1"}, "[5]": {"target": "GalNAc(b1-3)Gal(a1-6)Gal(b1-4)Glc", "procedure,_shortened": "as §1"}, "GalNAc(b1-3)GalNAc": {"target": "GalNAc(b1-3)GalNAc", "procedure,_shortened": "as §1"}, "GalNAc(b1-3)GlcNAc": {"target": "GalNAc(b1-3)GlcNAc", "procedure,_shortened": "as §1"}, "GalNAc(b1-4)Gal(b1-4)Glc": {"target": "GalNAc(b1-4)Gal(b1-4)Glc", "procedure,_shortened": "as §1"}, "GalNAc(b1-4)GlcNAc": {"target": "GalNAc(b1-4)GlcNAc", "procedure,_shortened": "as §1"}, "[6]": {"target": "GalNAc(b1-4)GlcNAc(b1-2)Man", "procedure,_shortened": "as §1"}, "[7]": {"target": "GalNAc(b1-4)GlcNAc(b1-2)Man(a1-3)[GalNAc(b1-4)GlcNAc(b1-2)Man(a1-6)]Man(b1-4)GlcNAc(b1-4)GlcNAc", "procedure,_shortened": "as §1"}, "[8]": {"target": "GalNAc(b1-4)GlcNAc(b1-3)GalNAc(b1-4)GlcNAc", "procedure,_shortened": "as §1"}, "GalNAc(b1-4)GlcNAc6S": {"target": "GalNAc(b1-4)GlcNAc6S", "procedure,_shortened": "as §1"}, "GalNAc(b1-6)GalNAc": {"target": "GalNAc(b1-6)GalNAc", "procedure,_shortened": "as §1"}, "GalNAc3S(b1-4)GlcNAc": {"target": "GalNAc3S(b1-4)GlcNAc", "procedure,_shortened": "as §1"}, "GalNAc3S(b1-4)GlcNAc3S": {"target": "GalNAc3S(b1-4)GlcNAc3S", "procedure,_shortened": "as §1"}, "[9]": {"target": "GalNAc3S(b1-4)[Fuc(a1-3)]GlcNAc", "procedure,_shortened": "as §1"}, "GalNAc4S6S(b1-4)GlcNAc": {"target": "GalNAc4S6S(b1-4)GlcNAc", "procedure,_shortened": "as §1"}, "GalNAc6S(b1-4)GlcNAc": {"target": "GalNAc6S(b1-4)GlcNAc", "procedure,_shortened": "as §1"}, "Glc(a1-4)Glc": {"target": "Glc(a1-4)Glc", "procedure,_shortened": "as §1"}, "[10]": {"target": "Glc(a1-4)Glc(a1-4)Glc(a1-4)Glc", "procedure,_shortened": "as §1"}, "Glc(a1-6)Glc(a1-6)Glc": {"target": "Glc(a1-6)Glc(a1-6)Glc", "procedure,_shortened": "as §1"}, "[11]": {"target": "Glc(a1-6)Glc(a1-6)Glc(a1-6)Glc", "procedure,_shortened": "as §1"}, "Glc(b1-4)Glc": {"target": "Glc(b1-4)Glc", "procedure,_shortened": "as §1"}},
  "note": "The list shows a part of the results.",
  "data": [
    {"binder": "B1", "values": [
      {"measurement": "glycan array binding signal (z-score)", "setting": "Gal3S6S(b1-4)GlcNAc", "result": 0.158},
      {"measurement": "glycan array binding signal (z-score)", "setting": "Gal3S6S(b1-4)GlcNAc6S", "result": -0.38},
      {"measurement": "glycan array binding signal (z-score)", "setting": "Gal4S(b1-4)GlcNAc", "result": -0.521},
      {"measurement": "glycan array binding signal (z-score)", "setting": "Gal4S6S(b1-4)GlcNAc", "result": -0.324},
      {"measurement": "glycan array binding signal (z-score)", "setting": "Gal6P(b1-4)GlcNAc", "result": -0.387},
      {"measurement": "glycan array binding signal (z-score)", "setting": "Gal6S(b1-3)GlcNAc", "result": -0.528},
      {"measurement": "glycan array binding signal (z-score)", "setting": "Gal6S(b1-3)GlcNAc6S", "result": -0.368},
      {"measurement": "glycan array binding signal (z-score)", "setting": "Gal6S(b1-4)Glc", "result": -0.331},
      {"measurement": "glycan array binding signal (z-score)", "setting": "Gal6S(b1-4)Glc6S", "result": 0.088},
      {"measurement": "glycan array binding signal (z-score)", "setting": "Gal6S(b1-4)GlcNAc", "result": -0.403},
      {"measurement": "glycan array binding signal (z-score)", "setting": "Gal6S(b1-4)GlcNAc6S", "result": -0.591},
      {"measurement": "glycan array binding signal (z-score)", "setting": "GalNAc(a1-3)Gal", "result": 0.012},
      {"measurement": "glycan array binding signal (z-score)", "setting": "GalNAc(a1-3)GalNAc", "result": -0.485},
      {"measurement": "glycan array binding signal (z-score)", "setting": "[1]", "result": -0.535},
      {"measurement": "glycan array binding signal (z-score)", "setting": "[2]", "result": -0.218},
      {"measurement": "glycan array binding signal (z-score)", "setting": "GalNAc(b1-3)Gal", "result": -0.385},
      {"measurement": "glycan array binding signal (z-score)", "setting": "[3]", "result": 0.79},
      {"measurement": "glycan array binding signal (z-score)", "setting": "[4]", "result": 0.185},
      {"measurement": "glycan array binding signal (z-score)", "setting": "[5]", "result": 0.354},
      {"measurement": "glycan array binding signal (z-score)", "setting": "GalNAc(b1-3)GalNAc", "result": -0.384},
      {"measurement": "glycan array binding signal (z-score)", "setting": "GalNAc(b1-3)GlcNAc", "result": 0.15},
      {"measurement": "glycan array binding signal (z-score)", "setting": "GalNAc(b1-4)Gal(b1-4)Glc", "result": 1.39},
      {"measurement": "glycan array binding signal (z-score)", "setting": "GalNAc(b1-4)GlcNAc", "result": 0.829},
      {"measurement": "glycan array binding signal (z-score)", "setting": "[6]", "result": -0.395},
      {"measurement": "glycan array binding signal (z-score)", "setting": "[7]", "result": -0.02},
      {"measurement": "glycan array binding signal (z-score)", "setting": "[8]", "result": -0.042},
      {"measurement": "glycan array binding signal (z-score)", "setting": "GalNAc(b1-4)GlcNAc6S", "result": 1.08},
      {"measurement": "glycan array binding signal (z-score)", "setting": "GalNAc(b1-6)GalNAc", "result": -0.41},
      {"measurement": "glycan array binding signal (z-score)", "setting": "GalNAc3S(b1-4)GlcNAc", "result": 0.126},
      {"measurement": "glycan array binding signal (z-score)", "setting": "GalNAc3S(b1-4)GlcNAc3S", "result": -0.436},
      {"measurement": "glycan array binding signal (z-score)", "setting": "[9]", "result": -0.468},
      {"measurement": "glycan array binding signal (z-score)", "setting": "GalNAc4S6S(b1-4)GlcNAc", "result": -0.551},
      {"measurement": "glycan array binding signal (z-score)", "setting": "GalNAc6S(b1-4)GlcNAc", "result": -0.531},
      {"measurement": "glycan array binding signal (z-score)", "setting": "Glc(a1-4)Glc", "result": 0.253},
      {"measurement": "glycan array binding signal (z-score)", "setting": "[10]", "result": 2.03},
      {"measurement": "glycan array binding signal (z-score)", "setting": "Glc(a1-6)Glc(a1-6)Glc", "result": -0.273},
      {"measurement": "glycan array binding signal (z-score)", "setting": "[11]", "result": 2.73},
      {"measurement": "glycan array binding signal (z-score)", "setting": "Glc(b1-4)Glc", "result": 0.123}
    ]}
  ]
}
